Results as given in the supplement of paper PMC11417369.
± gives the standard deviation of the averaged measurements. The list shows a part of the results.

Test system: PfAP2-EXP AP2 domain (GST-tagged)
Experiment: gcPBM binding intensity (ln(normalized median fluorescence intensity)); higher = stronger DNA binding
Outline: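 DNA-binding domains from P. falciparum, fused to GST and produced in E. coli, were put on an Agilent 4 × 180k double-stranded probe array for 1 h in 1× PBS holding 1% milk, 0.2 mg/ml BSA, 0.5% salmon testes DNA and 0.03% Triton X-100. Probes were primer-extended, 36 bp long and drawn from intergenic genomic regions, with negative controls included. After Alexa488 anti-GST antibody detection and a 488 nm scan, binding intensity was set as the highest Masliner-normalised natural-log median intensity across replicate spots of either probe orientation.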

| Sequence | gcPBM binding intensity (ln) |
| --- | --- |
| AAAAAAAAAAATAAATGTACAAAATAATGGGGAACA [XGTACX_site8723] | 9.01 ± 0.48 |
| GTGAATGATTTAAGTACACACCGGTATTTATTCAAA [CACACA_site4950] | 8.6 ± 0.18 |
| AAAAAAAAAAAATACACACACACATATTTATTTATA [CACACA_site6483] | 8.32 ± 0.48 |
| TTTTTTTTTTTTTTTTGTACGAATAAACAAGTTATT [XGTACX_site5473] | 7.9 ± 0.58 |
| TGTATTAAAAATTTGGTGCAACTTTTACATAATAAT | 8.585 ± 0.078 |
| ATATATATATATATATGTACATATTTTATTTAATTT [XGTACX_site1807] | 10.2 ± 0.28 |
| AAATAAAATTATAACTGTACGTTGTATGAAATAATG [XGTACX_site5462] | 8.54 ± 0.36 |
| TGTATATATATATAAAGTACATATAATATATATTTG [XGTACX_site5411] | 8.33 ± 0.31 |
| CTGTTTAAAATATAAACACACATTGTTTGCTTTAGA [CACACA_site1301] | 8.3 ± 0.43 |
| ATTTTTTTACTGCAACCATATTTTTCCCTTTTATTC [CACACA_negctrl_site1282] | 8.94 ± 0.47 |
| GAATACACCACGCACACACACTTGAGAAAAAATAAA [CACACA_site7747] | 8.66 ± 0.44 |
| ATTATAATTATTTTGTTGCACTATTTTTGTAGGCCA [GTGCAC_site9734] | 8.93 ± 0.38 |
| TCTATAAAGTTCCATACATGCGCCATCATTTATATT [TGCATGCA_site195] | 9.01 ± 0.48 |
| GTGTACATAGGTATAGCACACACAAATGTAGGTATT [CACACA_site9339] | 8.61 ± 0.38 |
| TTTATAAAAATATACACACATACAAATATGCATATA [CACACA_site712] | 8.38 ± 0.4 |
| GAAAAAAGGAAATAAAGAAAAAAAAAAATGAAATAT [XGTACX_negctrl_site318] | 8.64 ± 0.59 |
| TTTCTTTTCTCAGAAATTATTCAAATGAAAAAAAAT [TGCATGCA_negctrl_site44] | 8.29 ± 0.45 |
| GTCAAATTTTTGTGCACACATATATAGTTATTATTA [CACACA_site2241] | 9.32 ± 0.21 |
| TTTATATGTATTAAGTGTACACATATAATCTATCTT [XGTACX_site4922] | 8.55 ± 0.29 |
| TAATAATATATATGAAGTACAATAACTTTTTGTTTT [XGTACX_site292] | 8.21 ± 0.28 |
| TTACATATGGTTAGTAGTACATATATAAATGTAAAT [XGTACX_site7206] | 8.62 ± 0.47 |
| AAAAAAAAAAAAAAAACACACACATACACCCAAAAA [CACACA_site7910] | 8.75 ± 0.085 |
| AAAATACACGCATACACACACACACCCACCCATATA [CACACA_site639] | 8.97 ± 0.67 |

| Sequence | gcPBM binding intensity (ln) |
| --- | --- |
| CAAAGGGAAATTAACACACACATATATATATATATA [CACACA_site2453] | 10.1 ± 0.32 |
| GTATACACATATATATGTACTTAATTATTTTATGTC [XGTACX_site6707] | 8.99 ± 0.48 |
| GTCATAAAAACATATACACACTTGAAATATAAAAAT [CACACA_site5315] | 8.54 ± 0.44 |
| AAACATGATTATTATAGTACAATTATAATTATTATA [XGTACX_site2590] | 8.14 ± 0.4 |
| ATATATATATATATATGTACATATTTTTAATTATAA [XGTACX_site7444] | 9.86 ± 0.13 |
| TTGTTTCTTAAATTATTTATTTTATATTAAAAAAAA [XGTACX_negctrl_site224] | 8.31 ± 0.46 |
| TCGTAGTTACTATGGCAAGAAAATAAACGGTCTTGT [GTGCAC_negctrl_site684] | 8.87 ± 0.42 |
| ATTCGTAGTTTTATGAATTAATATAATAAAAATTAA [XGTACX_negctrl_site181] | 8.08 ± 0.48 |
| AAGAAAATGAAAAAGTAAAAACATATATTAAATATA [TGCATGCA_negctrl_site123] | 8.51 ± 0.41 |
| TAAAAAACAAAACAGGTGCTATATAATTTTCATTTT | 8.55 ± 0.11 |
| ATAGAATAATATTGTAGTACTAAAAATATTCATTTT [XGTACX_site6447] | 8.22 ± 0.3 |
| TCTATATATAAATATAAATATATATATATAATGTTA [TGCATGCA_negctrl_site92] | 7.88 ± 0.35 |
| AAGTATATACATATATGTACACATTGTCAGATAGAA [XGTACX_site1236] | 8.66 ± 0.36 |
| TCTTTTTGTTCGTGTACACACATGAAATTTATAAAA [CACACA_site1619] | 8.91 ± 0.35 |
| ATTATAAATTAAAATACACACATATATACATAATAT [CACACA_site7337] | 8.44 ± 0.49 |
| ATATATATTTATATATATATATATATATATATGTAT [GTGCAC_negctrl_site220] | 8.87 ± 0.085 |
| AAAGAAAAAAAAAACACACACACACGCATTCAATAT [CACACA_site6169] | 8.65 ± 0.59 |
| CATGTAATATTAAACACACACTCATATAACACAATA [CACACA_site65] | 8.59 ± 0.4 |
| TCTTAGATTATTTATTGTACTTATGCTTAAAAAATT [XGTACX_site3639] | 8.39 ± 0.31 |
| TAGTTATTTATATACACACACATACAGACAAATAAA [CACACA_site7577] | 8.98 ± 0.52 |
| GTCCAATAAGGAAGAGTGCAAAAATTAAATAATATA [GTGCAC_site9751] | 8.76 ± 0.28 |
| ATATTTTCTTTTTAAAGTACATATTTGATTACAATA [XGTACX_site8414] | 8.31 ± 0.28 |
| GAAAAAAAAGAAAAAACACACATATGATATATTTAT [CACACA_site1524] | 8.26 ± 0.56 |

| Sequence | gcPBM binding intensity (ln) |
| --- | --- |
| CTTTTTTTAATATGCACACATATATTTTATATATTA [CACACA_site2077] | 8.75 ± 0.18 |
| ATATAGTATTAATTTGCATGTCATGTATTAGGTCGA [TGCATGCA_site540] | 8.78 ± 0.33 |
| TATTCATTTATAAGCTGTACACATTAATTTGAGCTA [XGTACX_site3616] | 8.65 ± 0.35 |
| ATTAGGATATATTAAAGTACTAATATAATACATTTT [XGTACX_site7386] | 8.16 ± 0.39 |
| TTTTATATTTTTTGTGGTACATTTAGAGAACCAAAA [XGTACX_site1695] | 8.26 ± 0.34 |
| TGTAAGTTGATATAATGTACATGTTTGATTTTTTTT [XGTACX_site7687] | 8.35 ± 0.37 |
| AGATTTATACAAATATGTACACACTAAATATATATT [XGTACX_site864] | 8.57 ± 0.34 |
| AAAAAGGGTATTATTACACACACGTAAATATTAATA [CACACA_site101] | 8.45 ± 0.4 |
| TCTATTTTCTTATGAATGCACTAATTTATAAAACGT | 8.69 ± 0.18 |
| TAACTAAGGAATAATACACACAGAAATATAGATTTA [CACACA_site6293] | 8.41 ± 0.42 |
| CAACAAAAATTATTTACACACAAAAGGCAAGGAAAT [CACACA_site1971] | 9.02 ± 0.49 |
| TTTATAAACAAATGAACACACAAACATATATATATA [CACACA_site5713] | 9.86 ± 0.14 |
| TTTTTTCATTAGAAAACATGCAAATGTTTTTCACTT [TGCATGCA_site127] | 8.3 ± 0.38 |
| TTTATTTTATCATTTGCACACGCACCCAGACATAAA [CACACA_site4347] | 9.03 ± 0.014 |
| CTATTATAATATTTTACACACCATGTAAGATATATA [CACACA_site7492] | 8.46 ± 0.35 |
| CTCTTTTTTTGCAAAAGTACAAATGGGGATATATTT [XGTACX_site5813] | 8.99 ± 0.38 |
| ATATATTTGATTTACACACTTACAATGTATATAAAT [CACACA_site2993] | 8.56 ± 0.48 |
| AAAGAAATAAGGTGCACACATATACAGATATATATA [CACACA_site4399] | 9.125 ± 0.078 |
| TTGTAAAAATTAATACATATATATATATATATATAT [CACACA_negctrl_site6] | 10 ± 0.56 |
| ACTCAAACCTTTAGAGTGCAAAAAAAAAAAAAAAAA [GTGCAC_site9952] | 8.27 ± 0.39 |
| TTACATATTTTTTAACGTACATAAATATATATGTAT [XGTACX_site8406] | 8.51 ± 0.27 |
| TTAAATAAAAAAATAACACACATATAAATATATATG [CACACA_site3175] | 8.2 ± 0.34 |
| ATAATTATCATAGGATGTACATATTTATTTTGTATA [XGTACX_site7797] | 8.46 ± 0.35 |

| Sequence | gcPBM binding intensity (ln) |
| --- | --- |
| ATATGTTAAATTATTCGTACGTAAAAAAAAATGGAT [XGTACX_site3465] | 8.96 ± 0.47 |
| TTCCTAAGAATAATCAGTACACATAAAAAGAACATA [XGTACX_site7861] | 8.71 ± 0.29 |
| ACTATATATTTAATATGTACACATATTTCTGTCGAT [XGTACX_site6878] | 8.68 ± 0.29 |
| TAATTTCATCATATTTGTTCCTTCTCAAAATTTTTT [CACACA_negctrl_site217] | 8.64 ± 0.64 |
| GCATTATTTACCACAACACACAAATATTTACCAATC [CACACA_site2669] | 9.04 ± 0.27 |
| TGTAAAACTGAAAAGGGTACATATAAATATATATAT [XGTACX_site69] | 9.285 ± 0.021 |
| ATATATATATCGATCTGTACATATATTTATAGACAT [XGTACX_site4236] | 9.6 ± 0.11 |
| ATATATTTATATTTATGTACATATCTTTATTTACGT [XGTACX_site6800] | 8.78 ± 0.4 |
| ATTTATTTTTATATAACACACAAAGTATAATATAAC [CACACA_site3582] | 8.39 ± 0.36 |
| TTTTTAAAAAAGTAAAGTACAAAAAAAAGGAATATC [XGTACX_site588] | 9.17 ± 0.44 |
| ATTAGTAAGAATCATTGTACATTATAATATGTGGTA [XGTACX_site1341] | 8.71 ± 0.49 |
| TGCTTCCTTAGGAATGTACACACATATATAATATGT [CACACA_site8048] | 8.47 ± 0.33 |
| ACAAGAAAATATATTTGTACATATATAATTTTATTT [XGTACX_site548] | 8.28 ± 0.35 |
| AAAGAAATACAATGATGTACATTTAAAAAAAATTAA [XGTACX_site4324] | 8.57 ± 0.42 |
| ATTCTTTTTTTTTGGAAATGTATTTTTATGTTTTGT [TGCATGCA_negctrl_site426] | 8.59 ± 0.57 |
| ATTTTAGATGAAAAAGCACACAACATATATATATAT [CACACA_site2295] | 10.1 ± 0.22 |
| GTATAATATGAACACACACACACACGCAAAAAAAAA [CACACA_site7036] | 8.68 ± 0.5 |
| ACGTTGAAGAAATACACATGCATATTCTATATATAT [TGCATGCA_site76] | 9.04 ± 0.071 |
| TATATTTTTTAAAAAGCATGCAAAAAATAATGATCA [TGCATGCA_site48] | 9.34 ± 0.39 |
| TAATATATATAAACATGTACAAATCAAAAACAAAAG [XGTACX_site4076] | 9.1 ± 0.47 |
